# In all, about 110,000 compounds were measured (“z-score”: median about -0.1, highest 2% from about 2 on). This is one part of the list. The source made the active and inactive calls.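 The calls were made as follows: active = z-score in the third read window above 3 or below -3; inactive = the rest.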
# Biological target: Metabotropic glutamate receptor 8 (Rattus norvegicus) (UniProt P70579)
# Assay: rat mGluR8 modulators via GIRK flux, primary screen, cell-based, thallium flux, HTS (AID 488969)
# Conditions: HEK293 rat mGluR8, GIRK (G protein-gated inwardly rectifying potassium channel) thallium flux, FluoZin2; at 10 µM; stronger effect = higher value; submaximal glutamate (EC20) added with thallium
# Chain of UniProt P70579 (P70579 whole entry, looked up): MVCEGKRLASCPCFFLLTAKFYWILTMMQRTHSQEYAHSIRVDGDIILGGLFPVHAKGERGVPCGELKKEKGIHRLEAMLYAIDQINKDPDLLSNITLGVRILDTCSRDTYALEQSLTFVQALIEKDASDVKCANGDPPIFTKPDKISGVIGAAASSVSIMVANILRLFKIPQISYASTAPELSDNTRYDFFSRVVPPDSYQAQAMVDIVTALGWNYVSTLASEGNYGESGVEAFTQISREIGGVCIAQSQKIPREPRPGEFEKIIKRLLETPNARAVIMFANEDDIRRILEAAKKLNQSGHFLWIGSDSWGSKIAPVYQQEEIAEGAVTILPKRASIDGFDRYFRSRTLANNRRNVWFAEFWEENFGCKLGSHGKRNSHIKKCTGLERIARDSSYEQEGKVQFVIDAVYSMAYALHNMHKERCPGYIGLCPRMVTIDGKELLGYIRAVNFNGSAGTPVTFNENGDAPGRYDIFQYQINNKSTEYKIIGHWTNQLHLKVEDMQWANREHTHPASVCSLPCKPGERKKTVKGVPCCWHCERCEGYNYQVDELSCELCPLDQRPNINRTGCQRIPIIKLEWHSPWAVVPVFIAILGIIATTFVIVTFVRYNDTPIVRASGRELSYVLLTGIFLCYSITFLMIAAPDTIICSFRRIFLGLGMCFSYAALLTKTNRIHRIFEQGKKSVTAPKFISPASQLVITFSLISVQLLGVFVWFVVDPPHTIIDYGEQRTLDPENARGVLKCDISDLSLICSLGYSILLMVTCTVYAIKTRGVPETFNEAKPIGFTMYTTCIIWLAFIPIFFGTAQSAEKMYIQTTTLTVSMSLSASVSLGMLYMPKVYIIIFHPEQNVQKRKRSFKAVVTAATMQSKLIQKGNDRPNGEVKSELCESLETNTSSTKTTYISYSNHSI
row,Compound,z-score
1,Clc1ccc(CSc2snnc2-c2ccccc2)c(Cl)c1,-0.113
2,COCCNC(=O)CSc1nc(-c2ccccc2)cs1,0.0459
3,CCc1ccc(NC(=O)CCNS(=O)(=O)c2cccc3nsnc23)cc1,0.211
4,Cc1ccc(CSc2nn3c(=O)c(C)nnc3s2)cc1,1.08
5,O=C(O)C1C2C=CC(C2)C1C(=O)NCc1cccnc1 (configuration not stated),0.0718
6,Cc1nc(SCC(=O)N2CCC(C(N)=O)CC2)n[nH]1,-0.029
7,Cc1nc(SCC(O)CO)c([N+](=O)[O-])[nH]1 (configuration not stated),-0.286
8,COc1cccc(-c2nc(S(=O)(=O)c3ccccc3)c(N3CCOCC3)o2)c1,-0.303
9,Cc1ccc(C2CC(=O)C=C(Nc3ccc(Cl)cc3)C2)cc1 (configuration not stated),-0.187
10,O=C(Cn1cc(C(=O)COc2ccccc2)c2ccccc21)NCc1ccco1,0.275
11,S=C(Nc1cccnc1)NC1CCCCCCC1,1.18
12,Cc1ccccc1C(=O)NC(=S)NC1CCSC1=O (configuration not stated),-0.0558
13,COc1ccc(/C=C/C(=O)NCCc2ccc(OC)c(OC)c2)cc1,-0.158
14,O=C1c2ccccc2C(=O)N1CCCCN1CCN(CCCCN2C(=O)c3ccccc3C2=O)CC1,0.421
15,O=C(NCc1ccncc1)C(F)(F)C(F)(F)C(=O)NCc1ccncc1,0.181
16,COc1ccc(-c2nn(-c3ccccc3)cc2/C=N/N=C(N)N)cc1OC,0.464
17,CCOc1ccccc1C(=O)NC1CC2CCCC(C1)N2Cc1ccccc1 (configuration not stated),0.651
18,COc1ccc(C(=O)CSc2nnc(NC(=O)C3CC(=O)N(c4cccc(OC)c4)C3)s2)cc1 (configuration not stated),-0.294
19,CC1(C)CC(=O)C2=C(C1)Nc1cc(C(=O)c3ccccc3)ccc1NC2c1ccccn1 (configuration not stated),-0.364
20,COC(=O)c1cccc(NC(=O)Cn2cnc3ccccc3c2=O)c1,-1.57
21,Cc1ccc(C(=O)N/N=C\c2c(C)nn(-c3ccccc3)c2Cl)cn1,-0.275
22,CCN1CCN(C(=O)C2c3cc(OC)c(OC)cc3C(=O)N(C)C2c2ccc(SC)cc2)CC1 (configuration not stated),0.574
23,CC(C)CC(=O)Nc1ccccc1N1CCCC1,-0.276

row,Compound,z-score
1,CC1=C(C(=O)Nc2cc(C)ccn2)C(c2ccc(C)cc2)C2=C(CCCC2=O)N1 (configuration not stated),-0.368
2,O=C(O)CC(NC(=O)c1ccccc1NC(=O)c1ccccc1)C(=O)O (configuration not stated),0.2
3,Cc1nnsc1SCCNC(=O)c1c(F)cccc1F,-0.0414
4,C=CCn1c(Cc2cccs2)nnc1SCC(=O)Nc1cccc(OC)c1,-0.528
5,Cc1ccccc1NC(=O)CN1C(=O)NC2(CCCCC2)C1=O,0.0629
6,CCOc1ccccc1C1CC(=O)Nc2c1c(=O)n(C)c(=O)n2C (configuration not stated),-0.336
7,CCOC(=O)c1cc(NC(=O)c2ccccc2)c(=O)oc1-c1ccccc1,-0.0159
8,COc1ccc(Cc2nn3c(-c4cc(OC)c(OC)c(OC)c4)nnc3s2)cc1,-2.53
9,Cc1cc(C)cc(OCC(=O)NCc2nc(-c3ccccc3)no2)c1,0.525
10,O=C(COc1ccc(/C=N/NC(=O)c2cc3ccccc3o2)cc1Br)Nc1ccccc1,-0.177
11,CCN(CC)S(=O)(=O)c1ccc(NC2=NS(=O)(=O)c3ccccc32)cc1,0.268
12,CC(NC(=O)Cn1c(NCCO)nc2ccccc21)c1ccccc1 (configuration not stated),-0.197
13,N#Cc1c(N)n(CCOC(=O)c2cccc(Br)c2)c2nc3ccccc3nc12,0.459
14,Cc1cc2ccccc2c(=O)n1CC(=O)NCC(=O)N1CCN(c2ccccc2)CC1,0.244
15,O=C(/C=C/c1c(F)cccc1Cl)Nc1nc2ccccc2[nH]1,-0.116
16,Cc1ccc(/C=N/n2nnnc2N)cc1[N+](=O)[O-],0.159
17,CC1(C(=O)NC(=S)N(CCC#N)c2ccccc2)CC1(Cl)Cl (configuration not stated),-0.0527
18,CC(C)OCC(O)Cn1c(N2CCCC2)nc2c1c(=O)[nH]c(=O)n2C (configuration not stated),0.265
19,O=C(NCC1CCCO1)c1ccccc1-c1nc(-c2ccc(Cl)cc2)no1 (configuration not stated),-0.557
20,CCCCn1nnc(NC(=S)NC(=O)c2cccs2)n1,0.0688
21,CCOC(=O)N1CCN(c2c(NCc3ccc(Cl)cc3)c(=O)c2=O)CC1,-1.06
22,CC1CC(C)CN(CCCNC(=O)CCNC(=O)Cn2ccc3ccccc3c2=O)C1 (configuration not stated),-1.48
23,CCOC(Cn1c(SCc2cc(C(C)=O)ccc2OC)nc2ccccc2c1=O)OCC,0.261

row,Compound,z-score
1,O=C(Nc1nc2ccccc2n1Cc1ccccc1)c1ccco1,1.7
2,CC1CCN(c2nnc(N)s2)CC1,0.28
3,CCCn1c(C)cc(-c2csc(N)n2)c1C,0.0373
4,CCOc1ccccc1NS(=O)(=O)N(C)C,0.286
5,COC(=O)c1onc(-c2ccccc2)c1C(=O)OC,-0.285
6,CN(C)S(=O)(=O)c1ccc(C(=O)N2CCC(c3nc4ccccc4o3)CC2)cc1,-0.222
7,CC(C)CC(=O)NC(=S)Nc1ccc(Cl)cn1,2.96
8,COc1ccc(-c2csc(NC(=O)CN3C(=O)CCC3=O)n2)cc1OC,-0.147
9,Cc1ccc(Nc2nc(Oc3ccc(OCc4ccccc4)nn3)nc(N3CCOCC3)n2)cc1,-0.293
10,CC(C(=O)N1CCc2ccccc21)n1cccc1 (configuration not stated),-0.0362
11,C/C(=N\N=C\c1ccccc1F)c1nnn(-c2nonc2N)c1C,-0.168
12,Cc1nc2ccc(NC(=O)N(C(C)C)C(C)C)cc2s1,-0.168
13,O=C(Nc1c(C(=O)N2CCCC2)cnn1-c1ccccc1)c1cccc(F)c1,0.436
14,Cc1ccc(-n2nc3c(=S)[nH]nc(C)c3c2C)cc1,-0.105
15,CCOc1ccc(S(=O)(=O)NCc2ccncc2)cc1,0.258
16,Cc1csc(NC(=O)C2C3C=CC(O3)C2C(=O)O)n1 (configuration not stated),-0.371
17,COC(=O)c1ccc(NC(=O)CN2C(=O)CSC2=O)cc1,0.132
18,Cc1nc2ccccn2c1P(=O)(N1CCCCC1)N1CCCCC1,0.254
19,O=C(COc1ccc(S(=O)(=O)NC2CCCCC2)cc1)N1CCN(c2ccc(F)cc2)CC1,-0.287
20,FC(F)(F)c1ccc(Oc2ccc3ccccc3c2Br)nc1,-0.14
21,CCOC(=O)c1ccccc1NC(=O)CSc1nnnn1C,0.00648
22,O=C(O)c1cc([N+](=O)[O-])ccc1C(=O)Nc1ccccc1,-0.0661
23,Nc1ccccc1C#Cc1ccccc1,-0.191

row,Compound,z-score
1,CCN(CC)c1ccc(/C=N/n2nnnc2N)c(O)c1,-1.41
2,CCn1c(SCC(=O)N/N=C/c2c[nH]c3ccccc23)nnc1-c1ccc(C(C)(C)C)cc1,-2.08
3,CCn1nnc(-c2ccccc2NC(=O)c2cc(OC)c(OC)c(OC)c2)n1,-1.03
4,Cc1ccc(OCC(O)CNC(=O)c2ccccc2C(=O)O)cc1 (configuration not stated),-0.385
5,COC(=O)c1ccc(-n2c(C)cc(-c3csc(NC(=O)c4ccc(S(=O)(=O)N(C)C)cc4)n3)c2C)cc1,-0.348
6,O=C(Cc1cccc2ccccc12)Nc1ccccc1C(=O)O,-0.592
7,Cn1cc(CN2CCc3ccccc3C2)c2ccccc21,0.58
8,O=C1N(Cc2ccc(F)cc2Cl)c2ccccc2C12OCCCO2,0.123
9,CCCN(CCC)CCCNS(=O)(=O)c1ccc2c(c1)oc(=O)n2C,-0.682
10,Cc1ccc(-n2nnnc2-c2cnc3ccc(Cl)cc3c2-c2ccccc2)cc1,-0.158
11,COc1ccc(-n2cnnc2SCC(=O)Nc2nc(C)c(Cl)cc2Cl)cc1,-0.259
12,Cc1c(NC(=O)c2cc3nc(-c4ccc(Cl)cc4)cc(C(F)(F)F)n3n2)c(=O)n(-c2ccccc2)n1C,-0.18
13,COc1ccccc1NC(=O)C1=C(C)NC(SCC(=O)c2ccc(C)cc2)=C(C#N)C1c1ccco1 (configuration not stated),-0.301
14,CCN(C(=O)c1cn(CC)c(=O)c2cc(OC)c(OC)cc12)c1ccccc1C,-0.561
15,CC(=O)CCc1c[nH]c2c(C(=O)O)cccc12,0.0101
16,CC1(C)Cc2c(sc3nc4n(c(=N)c23)CCC4)CO1,-0.0375
17,Cc1ccc(CSCC(=O)NCc2cccnc2)cc1,-0.00593
18,O=C(NCC(=O)N(Cc1cccs1)C(C(=O)NC1CCCC1)c1ccncc1)c1ccco1 (configuration not stated),0.432
19,O=C(Nc1cccnc1)c1noc2c1CCCCC2,-0.366
20,O=C(NCc1ccco1)c1ccc(S(=O)(=O)c2cccc(S(=O)(=O)N3CCOCC3)c2)cc1,0.0723
21,Cc1ccc(C(=O)COc2ccccc2-c2ccccc2)cc1C,-0.198
22,Cc1cc2ccccc2c(=O)n1CC(=O)NCc1ccco1,-1.13
23,N#Cc1c2c(c[nH]c1=O)CCN2Cc1ccccc1,-2.26

row,Compound,z-score
1,O=C1Cc2ccccc2C(=O)N1CCc1ccccc1,0.155
2,CCC(C)(C)n1nnnc1CN1CCN(c2nc3cc(OC)ccc3cc2C#N)CC1,-1.2
3,C=C(C)c1cccc(C(C)(C)NC(=O)Nc2ccc(Cl)cn2)c1,-0.222
4,COc1ccc(NC(=O)CN2CCC3(O)CCCCC3C2c2ccccc2OC)cc1 (configuration not stated),-0.286
5,O=C(CCC1CCCC1)NCCCN1CCOCC1,-0.00267
6,Cc1cc(NC(=O)CSc2nnc(COc3cccc(C)c3C)n2Cc2ccco2)no1,-0.155
7,O=C(N/N=C/c1ccc(Br)o1)/C(=C/c1ccc([N+](=O)[O-])cc1)NC(=O)c1ccccc1,-0.162
8,O=c1c(CN2CCN(Cc3ccccc3)CC2)coc2ccc(Cl)cc12,-0.714
9,CC1=CC(=O)C=CC1(C)C(Cl)(Cl)Cl (configuration not stated),-0.171
10,N/C(Cc1ccc(Cl)cc1)=N\OC(=O)c1cccc2ccccc12,-0.0256
11,CC(C)N1CCC(=NNC(=O)c2ccc(Br)o2)CC1,0.407
12,COc1ccc(OC)c(NC(=O)c2cc3sccc3n2C)c1,-0.233
13,Cn1c(=O)c2c(nc(NCc3ccco3)n2CC(O)COc2ccccc2)n(C)c1=O (configuration not stated),-0.558
14,CCn1c2ccc(/C(C)=N\O)cc2c2cc(/C(C)=N\O)ccc21,-0.282
15,O=C(NCc1ccccc1Cl)c1ccc2c(=O)n(CCCN3CCCC3=O)c(=S)[nH]c2c1,-0.38
16,O=C(O)CN1CCN(Cc2ccc(F)cc2Cl)C1=O,0.135
17,CCOC(=O)c1sc(SCC(=O)Nc2ccc(N(C)C)cc2)nc1N,-1.68
18,[N-]=[N+]=CC(=O)C(Cc1ccccc1)N1C(=O)c2ccccc2C1=O (configuration not stated),-0.28
19,CCc1nc(SCc2ccc(F)cc2)[nH]c(=O)c1C#N,active: -5.68
20,C=CCn1c(SCc2ccccc2)nc2scc(-c3ccc(C)o3)c2c1=O,-0.00781

# From PubChem BioAssay AID488969 (Vanderbilt High Throughput Screening Facility, 2010)
